Results on one compound are retold here after PubChem BioAssay (NCI).

Each structure is given as a SMILES string.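 Tested at 5 concentrations; 48 h exposure; 96-well plates; endpoints linearly interpolated, else capped at highest concentration. GI50 marks 50% less growth.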 A number of entries come with more than one value. The list is limited to them. The source may hold further records. Records of one sample usually come from different ranges of test concentrations, not given here; a value can be the end of its range.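 TGI: total growth inhibition.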

Test systems include SK-MEL-2 melanoma; SF-268 CNS; SW-620 colon; CCRF-CEM leukemia; A549 NSCLC; NCI-H23 lung; MDA-MB-231 breast; SNB-19 CNS; ACHN renal.
Assay in all cases: growth of human tumour cells (NCI), 48 h

For the compound `CC1=C(N2CC2)C(=O)C(CO)=C(N2CC2)C1=O`, the GI50 is 21.1 nM [1 test] and 226 nM [mean of 2 tests] with SK-MEL-2 melanoma; 2.86 nM [1 test] and 62.2 nM [mean of 5 tests] in the test on A549 NSCLC. For the same compound, the TGI with SF-268 CNS was 44.2 nM and 694 nM; in the test with SW-620 colon, 27.3 nM and 1.62 µM; in the test on CCRF-CEM leukemia it was 6.89 nM and 191 nM; in the test on A549 NSCLC, 35 nM [1 test] and 4.62 µM [mean of 5 tests]; in the test on NCI-H23 lung, 7.65 nM and 342 nM; in the test with MDA-MB-231 breast it was 634 nM and 6.9 µM. Further, the TGI in the test on SNB-19 CNS is 30.9 nM and 1.8 µM; in the test with ACHN renal it was 4.65 nM and 122 nM.
